The list shows a part of the results.
T1: UNK ZnF1-6 (called full-length) (human, UniProt Q9C0B0 30-357)
T1 sequence: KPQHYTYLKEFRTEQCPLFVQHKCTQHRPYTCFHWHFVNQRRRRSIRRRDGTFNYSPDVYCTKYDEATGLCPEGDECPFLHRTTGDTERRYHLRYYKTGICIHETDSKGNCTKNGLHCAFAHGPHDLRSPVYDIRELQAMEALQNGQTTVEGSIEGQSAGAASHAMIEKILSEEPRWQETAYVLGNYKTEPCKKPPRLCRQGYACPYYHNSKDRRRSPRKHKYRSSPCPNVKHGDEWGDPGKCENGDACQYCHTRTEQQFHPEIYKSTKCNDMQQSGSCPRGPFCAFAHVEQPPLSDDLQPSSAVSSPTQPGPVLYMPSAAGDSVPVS

B1: chr19:21059139:21059240:+|3pUTR|ENSG00000118620|unk|FALSE|unique (ssRNA)
RNA: GGGAGUUCUACAGUCCGACGAUCGUAAAAAUGAAAAUAUUUAAUCCAAAAUUAAGUCUAUGUAAAUAUCAGAGAAUUUACUGUAGAAAUAUAUAAGGCACUGAGACUUCAGAUAUUAUACUAAAUCAGAGUGCUGAGUAUAGACAACAGAGGAUUGAGCAUCA
B2: chr12:49323620:49323721:+|CDS|ENSG00000135451|unk|FALSE|unique (ssRNA)
RNA: GGGAGUUCUACAGUCCGACGAUCAUCAUGACCACCCGGCAAGCCACGAAGGAUCCCCUCCUCCGGGGUGUAUCUCCUACCCCUAGCAAGAUUCCGGUACGCUCUCAGAAACGCACGCCUUUCCCCACUGUUACAUCGUGCGCCCAACAGAGGAUUGAGCAUCA
B3: ENSG00000198589:be:win_2101|CDS|ENSG00000198589|bound_else_gene|NA|bound_elsewhere_windowed (ssRNA)
RNA: GGGAGUUCUACAGUCCGACGAUCGUUGCAUUAAUGUCAGAACACCCUAACUCUAUGAUUCCUGCUUUUGACCAAAGGAAUGGGUUACGUGUUAUCUACAAACUUCUGGCAUCGAAAAGUGAAGGAAUCAGGGUACAAGCUCUUCAACAGAGGAUUGAGCAUCA
B4: chr8:143915506:143915607:-|3pUTR|ENSG00000178209|msi1|total|mutant (ssRNA)
RNA: GGGAGUUCUACAGUCCGACGAUCCCCCACACUCACUCCUGAGACCCCUGGCCUCCGGCGUCAGCCUCCAGCCUCUGUUCCCCCCGUAAGUGCCUUCCAUGUCGGCCUCUAACCCCAGGCCCCGAGGACCCAGACCCAGUGGGGCAACAGAGGAUUGAGCAUCA
B5: chr1:46316673:46316776:+|3pUTR|ENSG00000173660|unk|total|mutant (ssRNA)
RNA: GGGAGUUCUACAGUCCGACGAUCUGUUUCUUAUUUGUGUAACUGUAAGUUCACAUGAACCUCAUGGGUUUGGCUCCGGCUGGCCGCUUCUAUGUAAUUCGCAAUGAUUCCAUCUAAAUAAAAGUUCUAUGAUCUGCAAACCUGCAACAGAGGAUUGAGCAUCA
B6: chr18:35366693:35369214:-|three_prime_utr|ENSG00000186496|control|control|control (ssRNA)
RNA: GGGAGUUCUACAGUCCGACGAUCCAAAGCAUUUACUCAGAGCUAUUUCAGCACAAGGGAAGACACCAGAUGCAAACGCUCCUUAGUACAAAUCAGUGGUCUUAGUAAGCACCAGUCUCCUUUCAAGACUCAUGAAAGCCACAGCAACAGAGGAUUGAGCAUCA
B7: chr7:101138466:101138856:+|3pUTR|ENSG00000106366|msi1|total|mutant (ssRNA)
RNA: GGGAGUUCUACAGUCCGACGAUCGAGUGGGGGGACAGAGACUCAGAUGAGGACAGAGUGGUUUCCAAUGUGUUCAACCGAUUCCGGAGCAGAAAUGCAAGGGGCUGCAUGACCUACCAGGACAGAACUUUCCCCAAUUACAGGCAACAGAGGAUUGAGCAUCA
B8: chr14:100884374:100884478:-|CDS|ENSG00000254656|unk|total|mutant (ssRNA)
RNA: GGGAGUUCUACAGUCCGACGAUCGAGGAGUCAUGCAACGGUUCACACCAGGCAAGGGGGGAUCCACUCAGUGGAGCAUCUGACCGGAUGAAAGAAGCAUCAGUCAACCCAUCGGGAGCCCGAGAAGAACAAGAGGCUCACACUCAACAGAGGAUUGAGCAUCA
B9: chr20:38750096:38750197:+|CDS|ENSG00000101442|unk|total|mutant (ssRNA)
RNA: GGGAGUUCUACAGUCCGACGAUCGCAAAUGAUGUCUGAGCUUCUUUUUGAGUGCUACGGGAUUCCCAAGGUUGCCUAUGGAACCGACAGCCUCUUCAGCUUCUACCACAAUAAGCCAAAGAACUCGAUGUGCAGUGGGCUAAUCAACAGAGGAUUGAGCAUCA
B10: chr10:128098466:128098636:-|3pUTR|ENSG00000148773|msi1|FALSE|unique (ssRNA)
RNA: GGGAGUUCUACAGUCCGACGAUCUCCUUUCCUUUCUGAAAAUAAAGUUUUGUGCUUUGGAGAAUGACUCGUGAGCACAUCUUUAGGGACCAAGAGUGACUUUCUGUAAGGAGUGACUCGUGGCUUGCCUUGGUCUCUUGGGAACAACAGAGGAUUGAGCAUCA
B11: chr10:25598329:25598431:+|CDS|ENSG00000151025|unk|total|mutant (ssRNA)
RNA: GGGAGUUCUACAGUCCGACGAUCAUCGAUGUUACAGAAGUCUCUCAGUGUCACCGCAAGCGCCAAGGAGAAGACUCUUGGAUCCGCUGGGAAAACCCAAACAGCAGGUGUGGAAGAACGCACUAAAUCCCAGAAACCUUUGCCCAACAGAGGAUUGAGCAUCA
B12: chr12:6347307:6347408:-|3pUTR|ENSG00000111319|msi1|total|mutant (ssRNA)
RNA: GGGAGUUCUACAGUCCGACGAUCGUCUGCUCCUCCUCUUGAACUUGGGUGGGAAACCCCACCCAAAAGCCCCCUUUGUUACUCCGGCAAUUCCCCUUCCCUGACUCCCGAGGGCCCGGGCCCGAGCAGACCCGGGUAAGUAAACAACAGAGGAUUGAGCAUCA
B13: chr14:96489241:96489342:+|3pUTR|ENSG00000140057|unk|FALSE|unique (ssRNA)
RNA: GGGAGUUCUACAGUCCGACGAUCUAAAGUGUAUAAUUCAGUGGCACUAAGUUCAUUCACAAUGAUCUGCAGCCACCACUAUCUAGUCCAGAACUUUCUCAUCACCCCAAAUGGAAACCCAGCACCUAUUAGGCAGUCACGCUCCAACAGAGGAUUGAGCAUCA
B14: chr1:9614578:9614679:+|3pUTR|ENSG00000188807|msi1|total|mutant (ssRNA)
RNA: GGGAGUUCUACAGUCCGACGAUCUCCAGCUGCCAGCAAUGGUUCCAACUCGGAGGCAGCGCCUCUUGGUCCCCAUUUCUGUACCGCAGGCGUGUGUGUGUGUGUCGAGGUUUUUUAUUUUUUGCUUAAUCAAACUCCAUUCCCCAACAGAGGAUUGAGCAUCA
B15: chr9:88129304:88129631:-|three_prime_utr|ENSG00000177910|control|control|control (ssRNA)
RNA: GGGAGUUCUACAGUCCGACGAUCGACCAAGGCACUGUCUUUUUCAGGGAGGUAUCUAAUUUGGUCAGUCACAAAUUCCUUUUUAGCCUUCCCUAGAGAAAAACAAGUCACCAAGAAAAAAUUCACUCUAUGUAGAGGAAAAGUCAACAGAGGAUUGAGCAUCA
B16: chr12:50748518:50748596:+|3pUTR|ENSG00000066084|msi1_unk|total|mutant (ssRNA)
RNA: GGGAGUUCUACAGUCCGACGAUCUCAAAUUCAAACUACAGUACUGUGUAAUUAUGUAUAAAGUUUUUUUAUUUAUUUGAAGUCCGACCCGAUAUACGUUUUUAAAUUUAACAUCUGGCUGGACAGUGUUCUAUUAACUCAUUGCAACAGAGGAUUGAGCAUCA
B17: chr12:109450965:109451066:-|3pUTR|ENSG00000110906|msi1|FALSE|unique (ssRNA)
RNA: GGGAGUUCUACAGUCCGACGAUCGCCCGGGCACAAUCCCCACUGCUUUGCUAGACGUGCUUUCUGCCAUGUGGCUUUGGGCCUAGAGCUUGUUGAUAAUUGCAGCUUGUGGCAGUGGAAAUAUGGCUGAAUGAGCGUCUAAAUCAACAGAGGAUUGAGCAUCA
B18: chr2:32415736:32415837:+|CDS|ENSG00000115760|unk|FALSE|unique (ssRNA)
RNA: GGGAGUUCUACAGUCCGACGAUCGCAGAGGAAUGUUAGUGGUGGAUAUUUAGUGCUUUAUAAAAUGAAUUAUGCCACUCGGAUAGUGACUUUAGAAGAGGAGCCAAUAAAAAUACAACAUAUCAAAGAUCCCCAGGACACAAUCAACAGAGGAUUGAGCAUCA
B19: ENSG00000182118:stop:overlap|stop_codon|ENSG00000182118|stop_codon|NA|stop_codon (ssRNA)
RNA: GGGAGUUCUACAGUCCGACGAUCGGGACUUGUCACUGCCUGUCUCCUCCCUCUCCAGCAGCGACUGGAUUCUGGAGUCCAUCUAGAGGGUCUUGGGAGGGAUGUGACUGUUGGGAAGCCCUUCCUACUGGACACGCUGUCAUCCAACAGAGGAUUGAGCAUCA
B20: chr5:37007335:37007444:+|CDS|ENSG00000164190|unk|total|mutant (ssRNA)
RNA: GGGAGUUCUACAGUCCGACGAUCAGGCUUAUUAAGUUCAAAAGCAAAACGGGCUAAAUGUUCUACCCAUAAGCAGAGAGUAACCGUAAUGCUUUAUAACAAAGUUUGUGACAUUGUCCGCAGCUUAUCAGAAUUGCCCGAGAUCAACAGAGGAUUGAGCAUCA
B21: ENSG00000198589:be:win_9451|3pUTR|ENSG00000198589|bound_else_gene|NA|bound_elsewhere_windowed (ssRNA)
RNA: GGGAGUUCUACAGUCCGACGAUCUUAAACUAUCAUCUCCACCUUCCUUUUGAUUAGCAAUUUGUACUAAGAAACGAAACAAUGUUAUUUGGUGGUGUAUAAUUCUACUUUUCUAGUAGAUUACUGUGUGGAAUUCUGUGAAAACAACAGAGGAUUGAGCAUCA
B22: chr22:35606763:35607296:-|three_prime_utr|ENSG00000198125|control|control|control (ssRNA)
RNA: GGGAGUUCUACAGUCCGACGAUCGCUCCCACCCCCACCCAUCUGGGCCCCGGGUUCAAGAGAGAGCGGGGUCUGAUCUCGUGUAGCCAUAUAGAGUUUGCUUCUGAGUGUCUGCUUUGUUUAGUAGAGGUGGGCAGGAGGAGCCAACAGAGGAUUGAGCAUCA

target: T1, UNK ZnF1-6 (called full-length); experiment: nsRBNS (natural sequence RNA bind-n-seq); RBNS binding buffer (assumed for nsRBNS): 25 mM Tris pH 7.5, 150 mM KCl, 3 mM MgCl2, 0.01% Triton X-100, 500 ug/ml BSA, 20 U/ml SUPERase-In, 4 C; UNK is unkempt and MSI1 is Musashi-1; names of the RNAs are library labels; protein concentration not given here; high values mean tight binding

Binder | binding signal
B1 | 0.868 enrichment R
B2 | 0.962 enrichment R
B3 | 0.563 enrichment R
B4 | 0.723 enrichment R
B5 | 0.349 enrichment R
B6 | 1.53 enrichment R
B7 | 0.923 enrichment R
B8 | 0.84 enrichment R
B9 | 0.458 enrichment R
B10 | 0.498 enrichment R
B11 | 0.604 enrichment R
B12 | 0.879 enrichment R
B13 | 0.624 enrichment R
B14 | 0.834 enrichment R
B15 | 0.241 enrichment R
B16 | 1.16 enrichment R
B17 | 0.65 enrichment R
B18 | 1.35 enrichment R
B19 | 0.628 enrichment R
B20 | 0.177 enrichment R
B21 | 0.643 enrichment R
B22 | 0.806 enrichment R
